The campaign covered roughly 39,000 compounds. About 220 (0.56%) showed activity. The list shows a part of the results.
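Note: static incubation at 37 °C against the wild-type strain, values averaged over two biological replicates.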

The subject of this assay is Escherichia coli K-12 BW25113. The assay is described as follows: relative growth (OD600 normalised to plate interquartile mean) (fraction); higher = less growth inhibition, active = 0.2 or less. Conditions: 50 µM; LB; incubation time: overnight (16-24 h).
On to `C[C@@H]1CN([C@@H](C)CO)C(=O)c2cccc(NS(=O)(=O)c3cn(C)cn3)c2O[C@H]1CN(C)C(=O)NC1CCCCC1`, for which the relative growth was inactive: 0.984. Under `CC(=O)N1Cc2cc(C(=O)NCc3cc(F)cc(F)c3)nc(-c3cccc(C4=CCCC4)c3)c2[C@H]1CCO` stands inactive: 0.982. Turning to `C[C@H](CO)N1C[C@H](C)[C@@H](CN(C)S(C)(=O)=O)Oc2ccc(NC(=O)Cc3cn(C)c4ccccc34)cc2C1=O`, the relative growth was inactive: 0.992.

Regarding `C[C@H](CO)N1C[C@H](C)[C@@H](CN(C)Cc2ccc(C(=O)O)cc2)OCCCC[C@H](C)Oc2ccc(NC(=O)Nc3ccc(F)cc3)cc2C1=O`, the relative growth was inactive: 0.994. Under `CC1=CCc2c(cc3oc(C)cc(=O)c3c2O)OC1` stands inactive: 0.978; under `Cc1cccc(S(=O)(=O)N2C[C@H](O)COC[C@@H]3O[C@@H](CC(=O)NCc4ccncn4)CC[C@H]32)c1`, inactive: 1.

As to `CC[C@H]1OC[C@@H]2CN(C(=O)CN(C)C)CC[C@H]21`, the relative growth was inactive: 0.984. With `C[C@@H]1CN([C@@H](C)CO)C(=O)Cc2cc(NC(=O)Cc3ccccc3)ccc2O[C@H]1CN(C)S(=O)(=O)c1ccccc1` the figure was inactive: 0.996; with `CC(=O)n1cc([C@H]2C=C(C(=O)N3CCN(Cc4ccccc4)CC3)O[C@@H](OCc3ccc(COC(=O)NCCCCCC(=O)NO)cc3)C2)c2ccccc21`, inactive: 1.01.

Take `C[N+]1(C)C[C@H](O)[C@H](C(=O)O)C1`: the relative growth is inactive: 1.02.

In the case of `Cc1ccc(S(=O)(=O)N2C[C@@H](O)COC[C@@H]3O[C@H](CC(=O)N[C@H]4CCN(Cc5ccccc5)C4)CC[C@H]32)cc1`, the relative growth is inactive: 0.989.

For `C[C@H](CO)N1C[C@H](C)[C@H](CN(C)Cc2ccc(Cl)c(Cl)c2)Oc2c(NS(=O)(=O)c3cccs3)cccc2C1=O`, the relative growth was inactive: 0.986. Under `Cc1ccccc1S(=O)(=O)N1C[C@@H](O)COC[C@H]2O[C@@H](CC(=O)N3CCC(Cc4ccccc4)CC3)CC[C@@H]21` stands inactive: 1.01; under `C[C@@H]1CN([C@@H](C)CO)C(=O)c2cc(NS(=O)(=O)c3ccc(F)cc3)ccc2O[C@@H]1CN(C)C(=O)Nc1cccc2ccccc12`, inactive: 1.04.

With `C[C@H]1CN([C@@H](C)CO)C(=O)c2cccc(NC(=O)c3ccncc3)c2O[C@H]1CN(C)Cc1ccc2c(c1)OCO2`, the relative growth is inactive: 0.989.

Take `Clc1nccc2ccccc12`: the relative growth is inactive: 1.02. With `COc1ccc(S(=O)(=O)N(C)C[C@@H]2Oc3ccc(NC(=O)CCC(F)(F)F)cc3CC(=O)N([C@H](C)CO)C[C@H]2C)cc1` the figure was inactive: 0.977; with `CCS(=O)(=O)Nc1ccc2c(c1)/C(=C(/Nc1ccc(CN3CCCCC3)cc1)c1ccccc1)C(=O)N2`, inactive: 0.951. Under `COc1ccc(S(=O)(=O)N(C)C[C@@H]2Oc3c(NS(=O)(=O)c4ccccc4)cccc3C(=O)N([C@H](C)CO)C[C@H]2C)cc1` stands inactive: 1.03; under `C[C@@H]1CN([C@H](C)CO)C(=O)Cc2cc(NS(C)(=O)=O)ccc2O[C@@H]1CN(C)S(=O)(=O)c1ccccc1`, inactive: 0.986. With `CS(=O)(=O)CCC/C(=N\OS(=O)(=O)O)S[C@@H]1O[C@H](CO)[C@@H](O)[C@H](O)[C@H]1O` the figure was inactive: 1.03. For `Cc1noc(C)c1S(=O)(=O)N(C)C[C@H]1OCCCC[C@H](C)Oc2ccc(NC(=O)Nc3ccc(C(F)(F)F)cc3)cc2C(=O)N([C@@H](C)CO)C[C@@H]1C`, the relative growth is inactive: 1.04. With `C[C@@H]1CN([C@H](C)CO)C(=O)c2cc(NC(=O)CCCN(C)C)ccc2O[C@@H]1CN(C)S(=O)(=O)c1cn(C)cn1` the figure was inactive: 0.965; with `NS(=O)(=O)Cc1ccccc1F`, inactive: 0.916. With `C[C@@H]1CCCCO[C@@H](CN(C)Cc2ccc(C(=O)O)cc2)[C@@H](C)CN([C@H](C)CO)C(=O)c2cc(NC(=O)NC3CCCCC3)ccc2O1` the figure was inactive: 0.986; with `C[C@@H]1CN([C@H](C)CO)C(=O)c2cc(C3=CCCC3)cnc2O[C@@H]1CN(C)S(=O)(=O)c1cn(C)cn1`, inactive: 0.999. With `COCCNC(=O)C[C@@H]1C[C@H]2c3cc(NC(=O)CN(C)C)ccc3O[C@H]2[C@@H](CO)O1` the figure was inactive: 1.01.

Turning to `Cc1noc(C)c1NC(=O)N(C)C[C@H]1OCCCC[C@@H](C)Oc2ccc(NC(=O)c3ccccc3)cc2C(=O)N([C@@H](C)CO)C[C@@H]1C`, the relative growth was inactive: 0.991. On to `CN1CCN(C(=O)C[C@@H]2CC[C@H](NC(=O)Cc3ccccn3)[C@@H](CO)O2)CC1`, for which the relative growth was inactive: 1.03. With `N#Cc1c(N)n(CCN)c2nc3ccccc3nc12` the figure was inactive: 0.962. With `COC(=O)[C@@H]1CCCC1=O` the figure was inactive: 1.03.

For `Cc1ccc(S(=O)(=O)N(C)C[C@H]2OCCCC[C@@H](C)Oc3ccc(NC(=O)Nc4ccc(C(F)(F)F)cc4)cc3C(=O)N([C@H](C)CO)C[C@@H]2C)cc1`, the relative growth was inactive: 0.973.

Regarding `C[C@@H]1CCCCO[C@H](CN(C)Cc2ccccc2)[C@@H](C)CN([C@@H](C)CO)C(=O)c2cc(NC(=O)Nc3ccc4c(c3)OCO4)ccc2O1`, the relative growth was inactive: 1.02.

As for `Cc1ccc(S(=O)(=O)N(C)C[C@@H]2OCCCC[C@@H](C)Oc3ccc(NC(=O)CCC(F)(F)F)cc3C(=O)N([C@@H](C)CO)C[C@H]2C)cc1`, the relative growth is inactive: 1.04. With `CNC(=O)C[C@@H]1CC[C@H]2[C@@H](COC[C@@H](O)CN2C(=O)c2ccc3c(c2)OCO3)O1` the figure was inactive: 1.02; with `NC1(C(=O)O)CCC1`, inactive: 0.982.

Consider `CCOC(=O)[C@H]1C/C=C/C[C@H](C(=O)OCC)C(=O)O[C@H]2[C@@H](OC)O[C@H](CO)[C@@H](OC(=O)c3ccc(Br)cc3)[C@@H]2OC1=O`, for which the relative growth was inactive: 0.975. Regarding `C[C@@H]1CN([C@@H](C)CO)S(=O)(=O)c2ccc(-c3ccncc3)cc2O[C@@H]1CN(C)C(=O)c1ccc2c(c1)OCO2`, the relative growth was inactive: 0.971.

For the compound `C[C@@H]1CN([C@H](C)CO)C(=O)c2cccc(NC(=O)C3CC3)c2O[C@H]1CN(C)Cc1ccc(-c2ccccc2)cc1`, the relative growth is inactive: 1. On to `C=CCOC(=O)[C@H]1[C@@H]2C(=O)O[C@@H](c3ccccc3)[C@@H](c3ccccc3)N2[C@@H](c2ccc(OCCOC(=O)[C@@H]3C[C@@H]4C(=O)N[C@@H](CCCCNC(C)=O)C(=O)N4[C@@H]3c3ccc(O)cc3)cc2)[C@]12C(=O)Nc1ccccc12`, for which the relative growth is inactive: 1.05. Under `C[C@@H]1CCCCO[C@H](CN(C)C(=O)c2ccncc2)[C@H](C)CN([C@H](C)CO)C(=O)c2cc(NC(=O)C3CCCCC3)ccc2O1` stands inactive: 0.986; under `C[C@@H]1CN([C@H](C)CO)C(=O)Cc2cc(N(C)C)ccc2O[C@@H]1CN(C)C(=O)Nc1ccc2c(c1)OCO2`, inactive: 0.986; under `C[C@H](CO)N1C[C@H](C)[C@H](CN(C)C(=O)Nc2ccc3c(c2)OCO3)OCCCC[C@H](C)Oc2ccc(NC(=O)c3ccncc3)cc2C1=O`, inactive: 0.98. With `CC(C)NC(=O)Nc1ccc2c(c1)C(=O)N([C@H](C)CO)C[C@@H](C)[C@@H](CN(C)S(=O)(=O)c1ccccc1)O2` the figure was inactive: 0.996.

Turning to `Cc1noc(C)c1NC(=O)Nc1ccc2c(c1)CC(=O)N([C@@H](C)CO)C[C@H](C)[C@@H](CN(C)Cc1ccc(C(=O)Nc3ccccc3N)cc1)O2`, the relative growth is inactive: 1.01. Regarding `CC1(C)CCC(CN2CCN(c3ccc(C(=O)NS(=O)(=O)c4ccc(NCC5CCOCC5)c([N+](=O)[O-])c4)c(Oc4cnc5[nH]ccc5c4)c3)CC2)=C(c2ccc(Cl)cc2)C1`, the relative growth is inactive: 0.99. `C[C@@H]1CN([C@@H](C)CO)C(=O)c2cc(C#Cc3ccccc3)cnc2O[C@H]1CN(C)S(=O)(=O)c1ccccc1F`: the relative growth was inactive: 1.01. With `O=C(C[C@H]1CC[C@@H]2[C@H](COC[C@H](O)CN2C(=O)Nc2ccc(Cl)c(Cl)c2)O1)NCc1ccncc1` the figure was inactive: 0.968; with `COc1ccc(NC(=O)Nc2cccc3c2O[C@@H](CN(C)Cc2ccc(-c4ccccc4)cc2)[C@@H](C)CN([C@H](C)CO)C3=O)cc1`, inactive: 0.993. With `CC(C)c1ccc(N2C=Nc3ccc(C(C)C)cc3C2)cc1` the figure was inactive: 0.982; with `C[C@H]1CN([C@@H](C)CO)C(=O)c2cc(NC(=O)Nc3ccc(C(F)(F)F)cc3)ccc2O[C@H]1CN(C)Cc1ccc(-c2ccccc2)cc1`, inactive: 1.01; with `NNC(=O)c1ccncc1`, inactive: 1.04. Take `CO[C@@H](CN(C)S(=O)(=O)c1ccc(Cl)cc1)[C@H](C)CN([C@@H](C)CO)S(=O)(=O)c1cccc(Cl)c1`: the relative growth was inactive: 1.01.

In the case of `C[C@@H]1CCCCO[C@@H](CN(C)C)[C@H](C)CN([C@H](C)CO)C(=O)c2cc(NS(=O)(=O)c3cn(C)cn3)ccc2O1`, the relative growth is inactive: 0.95. With `CC(C)NC(=O)N(C)C[C@H]1Oc2cc(C#Cc3cccc(F)c3)ccc2S(=O)(=O)N([C@H](C)CO)C[C@H]1C`, the relative growth is inactive: 0.984. Under `CC(C)NC(=O)N(C)C[C@@H]1Oc2ccc(NS(=O)(=O)c3ccc(Cl)cc3)cc2CC(=O)N([C@H](C)CO)C[C@@H]1C` stands inactive: 0.998. `C[C@@H](Oc1ccccc1Cl)c1nc2ccc(Cl)cc2[nH]1`: the relative growth is inactive: 0.958.

For `Cc1ccc(S(=O)(=O)N(C)C[C@H]2Oc3ccc(NC(=O)Nc4cccc5ccccc45)cc3CC(=O)N([C@H](C)CO)C[C@@H]2C)cc1`, the relative growth was inactive: 0.999. Under `C[C@H](CO)N1C[C@H](C)[C@H](CN(C)S(=O)(=O)c2cccs2)Oc2ncc(C#CC(C)(C)O)cc2C1=O` stands inactive: 1.01. For the compound `O=C(N[C@@H](c1ccccc1)c1ccc2ccccc2n1)C1CCN(C(=O)NC(c2ccccc2)c2ccccc2)CC1`, the relative growth is inactive: 1.02.

Values taken from the supplement of paper PMC9446081.
